# Reference: PubChem BioAssay AID1768 (National Center for Advancing Translational Sciences (NCATS), 2009)
# In all, about 270,000 compounds went through this assay and about 620 (0.23%) were called active. The inconclusive results got no clear call from the source; some entries with a clear call stand among them for comparison. The call rests on the fitted dose curve; in most records, active means well fitted inhibition curve with a large enough effect in the polarisation, with a control signal flat (not every such curve was filed as active); inconclusive means small, poorly fitted or top-dose-only effect, or effect the other way, or a change in a side signal; inactive means no such curve, though single readings can be large or run the other way; the % refers to the polarisation. Potencies beside an inconclusive call are fits to weak or partial responses and may not hold up. “Side channel” marks fits to a control or component signal instead of the main read-out.
# Target: Menin (Homo sapiens) (UniProt O00255)
# Chain of UniProt O00255 (O00255 whole entry, looked up): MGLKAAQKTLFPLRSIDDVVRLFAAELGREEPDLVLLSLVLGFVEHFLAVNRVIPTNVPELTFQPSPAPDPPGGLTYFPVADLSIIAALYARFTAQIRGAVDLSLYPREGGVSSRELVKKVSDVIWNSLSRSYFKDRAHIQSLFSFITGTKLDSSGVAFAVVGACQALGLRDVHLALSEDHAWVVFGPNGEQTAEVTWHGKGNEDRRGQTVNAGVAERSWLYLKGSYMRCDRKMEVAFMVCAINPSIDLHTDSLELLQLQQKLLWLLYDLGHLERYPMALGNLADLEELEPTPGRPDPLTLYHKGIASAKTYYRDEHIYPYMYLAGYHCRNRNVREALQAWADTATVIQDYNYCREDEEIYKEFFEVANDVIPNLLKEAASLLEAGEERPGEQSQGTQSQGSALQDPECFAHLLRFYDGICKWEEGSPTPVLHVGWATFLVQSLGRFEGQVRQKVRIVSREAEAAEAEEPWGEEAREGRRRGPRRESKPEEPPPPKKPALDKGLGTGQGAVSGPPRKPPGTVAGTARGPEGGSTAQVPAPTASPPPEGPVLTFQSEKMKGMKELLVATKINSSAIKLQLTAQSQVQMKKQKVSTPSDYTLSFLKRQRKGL
# Assay: qHTS Assay for Inhibitors Targeting the Menin-MLL Interaction in MLL Related Leukemias: Competition With Texas Red Labeled MLL-derived Mutant Peptide
# Settings: fluorescence polarization; series mostly up to 61.6 µM
# Potency means the concentration at half of the fitted maximal effect; tags describe the fitted curve by direction and shape or compound fluorescence and quenching.
row,SMILES,Potency
1,COc1cccc(C2Nc3ccccc3C(=O)N2c2ccc(F)cc2)c1O (stereo unspecified),inactive
2,COc1ccc(/C=N/OCc2ccccc2C#N)c(OC)c1,"inconclusive: 39.8 µM [inhibitor, single point]"
3,CCOC(=O)C1CCCN(Cc2cc(=O)oc3cc(C)c(C(C)C)cc23)C1 (stereo unspecified),"inconclusive: 8.91 µM [fluorescent, side channel, partial curve]"
4,C=C(C)C1Cc2c(C)nn(-c3cccc4ccccc34)c2C1 (stereo unspecified),"inconclusive: 3.55 µM [fluorescent, side channel, full curve, poor fit]"
5,O=C(NC(=S)NNC(=O)c1ccco1)c1ccc(Br)cc1,"inconclusive: 28.2 µM [quencher, side channel, single point]"
6,O=C(CSc1ccc(-c2ccco2)nn1)N1CCCCC1,"inconclusive: 4.47 µM [quencher, side channel, full curve]"
7,Cc1ccc(-c2noc(CN(C(=O)C34CC5CC(CC(C5)C3)C4)C(C)C)n2)cc1,"inconclusive: 5.01 µM [fluorescent, side channel, full curve, poor fit]"
8,COc1ccc(OC)c(NC(=O)Nc2cccc3ccccc23)c1,"inconclusive: 25.1 µM [quencher, side channel, partial curve]"
9,Cc1c(N2C(=O)/C(=C\C3CC=CCC3)SC2=S)c(=O)n(-c2ccccc2)n1C (stereo unspecified),"inconclusive: 28.2 µM [fluorescent, side channel, single point]"
10,C/C(=N\NC(=O)c1ccc(CSc2cccc3cccnc23)cc1)C1CCCCC1,inactive
11,Cc1cc(N/N=C2\CC(C)CC(C)(C)C2)nc2ccccc12 (stereo unspecified),"inconclusive: 44.7 µM [inhibitor, single point]"
12,CCCCN(CC)CCCNC(=O)c1cn(CC)c2ccc(S(=O)(=O)N3CCc4ccccc4C3)cc2c1=O,"inconclusive: 11.2 µM [inhibitor, partial curve]"
13,C=CCNc1nc(-c2ccc(Cl)cc2)cs1,"inconclusive: 39.8 µM [quencher, side channel, partial curve]"
14,COc1ccc(Cl)cc1NC(=O)C(=O)NC1CCCCCC1,"inconclusive: 39.8 µM [fluorescent, side channel, single point]"
15,COc1ccccc1-c1cc(C(=O)Nc2cc(C)on2)no1,"inconclusive: 31.6 µM [inhibitor, single point]"
16,O=C(Nc1ccc(Br)cc1)c1ccc(N2C(=O)C3CC=C(Cl)CC3C2=O)cc1 (stereo unspecified),"inconclusive: 8.91 µM [quencher, side channel, full curve]"
